{
  "source": "PubChem BioAssay AID588855",
  "about": "(National Center for Advancing Translational Sciences (NCATS), 2011)",
  "note": "“And” between values parts separate entries of the source, which are not always exact repeats. Identical values can stand only once. Hit rate of the full screen: of about 410,000 compounds, about 5,000 (1.2%) were called active. The inconclusive results got no clear call from the source; some entries with a clear call stand among them for comparison. The call rests on the fitted dose curve; in most records, active means well fitted inhibition curve with a large enough effect; inconclusive means small, poorly fitted or top-dose-only effect; inactive means no such curve, though single readings can be large or run the other way. A potency beside an inconclusive call is a rough fit, not a confirmed value. Potency means the concentration at half of the fitted maximal effect; tags describe the fitted curve by direction and shape.",
  "data": [
    {"assay": "qHTS for Inhibitors of TGF-b; further: nearly all actives have a fitted effect of over 65% in size", "details": "HepG2 CAGA-GFP TGF-b/SMAD3 reporter, GFP fluorescence, 18 h, TGF-beta stimulated, 500 pg/mL final; series mostly up to 46.1 µM", "how_it_was_run": "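Inhibition of TGF-beta-driven CAGA-GFP reporter expression in HEPG2 cells is measured by cellular GFP fluorescence after 18 h stimulation with 500 pg/mL recombinant TGF-beta in 1% FBS medium at 37 degrees C.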", "values": [
      {"smiles": "O=C(C1CCCN(Cc2ccc(Br)cc2)C1)N1CCCCC1", "note": "(stereo unspecified)", "Potency": "inconclusive: 22.4 µM [inhibitor, single point]"},
      {"smiles": "O=C1c2ccccc2-c2onc3ccc(N4CCCC4)c1c23", "Potency": "inconclusive: 14.1 µM [inhibitor, single point]"},
      {"smiles": "C=CCn1c(-c2cccc(OC)c2)n[nH]c1=S", "Potency": "inactive"},
      {"smiles": "Cc1ccc(Cn2c(SCc3ccc(C(=O)O)cc3)nc3cccnc32)cc1", "Potency": "inconclusive: 3.55 µM [inhibitor, full curve]"},
      {"smiles": "CC1SC2(NC1=O)C1CC3CC(C1)CC2C3", "note": "(stereo unspecified)", "Potency": "inactive"},
      {"smiles": "Cc1ccc(Cc2c(C3CCCCC3)nc3ccc(Br)cn23)cc1", "Potency": "inconclusive: 31.6 µM [inhibitor, single point]"},
      {"smiles": "CC(=O)Nc1ccc(S(=O)(=O)Nc2nc3ccccc3nc2Nc2ccc3ccccc3c2)cc1", "Potency": "inconclusive: 22.4 µM [inhibitor, single point]"},
      {"smiles": "O=C(Cn1c(=O)n(Cc2ccco2)c(=O)c2sc3ccccc3c21)Nc1ccc(F)cc1F", "Potency": "inactive"},
      {"smiles": "O=C(NCC(c1ccco1)S(=O)(=O)c1ccc(Cl)cc1)c1ccc(C(F)(F)F)cc1", "note": "(stereo unspecified)", "Potency": "active: 15.8 µM"},
      {"smiles": "CC(NC(=O)C1CCN(Cc2ccc(Oc3ccccc3)cc2)CC1)c1cccc2ccccc12", "note": "(stereo unspecified)", "Potency": "inconclusive: 35.5 µM [inhibitor, single point]"},
      {"smiles": "CC(C)(C)OC(=O)NCc1ccc(NC(=O)c2nc[nH]c2C(=O)Nc2cc(Br)ccc2F)cc1", "Potency": "inactive"},
      {"smiles": "O=S(=O)(NCCc1nnc2ccc(SCc3cccc(Cl)c3)nn12)c1ccccc1", "Potency": "inconclusive: 17.8 µM [inhibitor, single point]"},
      {"smiles": "CC(=O)N1CCCc2cc(S(=O)(=O)N3CCCC(C(=O)Nc4ccc(F)cc4F)C3)ccc21", "note": "(stereo unspecified)", "Potency": "inconclusive: 4.47 µM [inhibitor, single point]"},
      {"smiles": "OCCOCCn1c(CCNc2nc(-c3ccc(F)cc3)cs2)nc2cc(C(F)(F)F)ccc21", "Potency": "inconclusive: 14.1 µM [inhibitor, single point]"},
      {"smiles": "COc1ccc(C2CC(=O)C(C=NCCO)=C(O)C2)cc1", "note": "(stereo unspecified)", "Potency": "inconclusive: 5.62 µM [inhibitor, single point]"},
      {"smiles": "CCN1CCN(Cc2ccc(NC(=O)c3cc(NC(=O)c4cc5cccc(OC)c5o4)cc(OC)c3)cc2C(F)(F)F)CC1", "Potency": "inconclusive: 17.8 µM [inhibitor, single point] and inconclusive: 17.8 µM [inhibitor, partial curve, poor fit]"},
      {"smiles": "COc1cccc(-c2n[nH]c(=S)n2Cc2ccco2)c1OC", "Potency": "inconclusive: 35.5 µM [inhibitor, single point]"},
      {"smiles": "CC(NCCC(c1ccccc1)c1ccccc1)c1ccccc1", "note": "(stereo unspecified)", "Potency": "inconclusive: 35.5 µM [inhibitor, single point]"},
      {"smiles": "Nc1ncnc(Nc2ccc(F)cc2)n1", "Potency": "inactive"},
      {"smiles": "COc1ccc(-c2cc(NC=O)c3ncc(-c4cccc(C(=O)NCCN(C)C)c4)n3c2)cc1", "Potency": "inconclusive: 22.4 µM [inhibitor, single point]"},
      {"smiles": "CCc1ccc(NC(=O)C2CCN(S(=O)(=O)c3ccc4c(c3)CC(C)N4C(C)=O)CC2)cc1", "note": "(stereo unspecified)", "Potency": "inconclusive: 11.2 µM [inhibitor, partial curve, poor fit]"},
      {"smiles": "COC(=O)c1ccc(/C=N/N2CCN(Cc3ccc(C)cc3C)CC2)cc1", "Potency": "inconclusive: 5.01 µM [inhibitor, full curve]"},
      {"smiles": "O=S(=O)(Nc1ccc(-c2ccccc2)cc1)c1ccccc1", "Potency": "inconclusive: 20 µM [inhibitor, single point]"},
      {"smiles": "COc1ccc(-c2nc(NC(=O)Cn3ccc(C(F)(F)F)n3)sc2C)cc1", "Potency": "inconclusive: 35.5 µM [inhibitor, single point]"},
      {"smiles": "CC(C)(C)C(=O)NC(=S)Nc1ccc(Cc2ccncc2)cc1", "Potency": "inconclusive: 10 µM [inhibitor, partial curve]"},
      {"smiles": "CC(C)(C)c1cc(/C=N/NC(=O)Cc2nc3ccccc3[nH]2)cc(C(C)(C)C)c1O", "Potency": "inconclusive: 35.5 µM [inhibitor, single point]"},
      {"smiles": "C=CCSc1nsc(NC(=O)Nc2ccc(F)cc2)n1", "Potency": "active: 6.31 µM"},
      {"smiles": "COc1ccc(-c2cc(C(=O)O)c3c(C)nn(-c4ccccn4)c3n2)cc1", "Potency": "inconclusive: 0.0891 µM [inhibitor, full curve, poor fit]"},
      {"smiles": "CC(C)(C)SCCNC(=O)/C=C/c1ccc(F)cc1", "Potency": "inactive"},
      {"smiles": "COc1cc(C2N(C)CCC3(OCCO3)C2(C)C)cc(OC)c1OC", "note": "(stereo unspecified)", "Potency": "inconclusive: 3.16 µM [inhibitor, full curve, poor fit]"},
      {"smiles": "Brc1ccc(-c2cn3cc(Cc4ccccc4)sc3n2)cc1", "Potency": "inactive"},
      {"smiles": "COc1ccc(/C=N\\NC(=O)c2ccc([N+](=O)[O-])cc2)cc1COc1c(F)c(F)cc(F)c1F", "Potency": "active: 0.355 µM"},
      {"smiles": "CC(C)C[C@H](NC(=O)c1nc[nH]c1C(=O)NC1CCN(C(=O)OC(C)(C)C)CC1)C(=O)OCc1ccccc1", "Potency": "inconclusive: 22.4 µM [inhibitor, single point]"},
      {"smiles": "COc1ccc(OC)c(Nc2nc(-c3ccc(O)c(O)c3)cs2)c1", "Potency": "inconclusive: 35.5 µM [inhibitor, single point]"},
      {"smiles": "Cc1cc(=O)oc2cc(OCC(=O)N3CCN(C(=O)C4COc5ccccc5O4)CC3)c(Cl)cc12", "note": "(stereo unspecified)", "Potency": "inactive"},
      {"smiles": "O=C(N/C(=C/c1ccccc1Cl)C(=O)N1CCCCC1)c1ccco1", "Potency": "inactive"},
      {"smiles": "O=C1NC(c2ccco2)Nc2ccccc21", "note": "(stereo unspecified)", "Potency": "inconclusive: 0.891 µM [inhibitor, full curve, poor fit]"},
      {"smiles": "Cc1cccc(CSc2nnnn2-c2ccccc2)c1", "Potency": "inactive"},
      {"smiles": "O=C(NCC1COc2ccccc2O1)c1cccs1", "note": "(stereo unspecified)", "Potency": "inactive"},
      {"smiles": "CN(Cc1ccccc1F)C(=O)c1ccc2c(=O)n3c(nc2c1)CCC3", "Potency": "inconclusive: 35.5 µM [inhibitor, single point]"},
      {"smiles": "COc1cc(NC(C)CCCN)c2nc(C)ccc2c1Oc1ccc(F)cc1", "note": "(stereo unspecified)", "Potency": "inconclusive: 25.1 µM [inhibitor, single point]"},
      {"smiles": "CCOc1cc(CNC(=O)CSc2n[nH]c(-c3ccccc3)n2)cc(OCC)c1OCC", "Potency": "inconclusive: 35.5 µM [inhibitor, single point]"},
      {"smiles": "Cc1nn(-c2ccccc2)c(Cl)c1/C=N/NC(=O)c1nn(C)cc1[N+](=O)[O-]", "Potency": "inconclusive: 12.6 µM [inhibitor, single point]"},
      {"smiles": "CC1CC(C)CN(CCCNC(=O)c2ccc3c(c2)N(Cc2ccccc2)C(=O)c2ccccc2S3=O)C1", "note": "(stereo unspecified)", "Potency": "inconclusive: 17.8 µM [inhibitor, partial curve, poor fit]"},
      {"smiles": "C/C(=N\\Nc1cccc(Cl)c1)C1(C)N(O)C(C)(C)C(c2ccco2)=[N+]1[O-]", "note": "(stereo unspecified)", "Potency": "inconclusive: 11.2 µM [inhibitor, partial curve, poor fit]"},
      {"smiles": "CN(Cc1ccccc1)C(=O)c1[nH]cnc1C(=O)Nc1ccc(Cl)cc1", "Potency": "inconclusive: 35.5 µM [inhibitor, single point]"},
      {"smiles": "CCOc1ncccc1C(=O)OCC(=O)Nc1cc(S(=O)(=O)N2CCCCC2)ccc1Cl", "Potency": "inconclusive: 25.1 µM [inhibitor, single point]"},
      {"smiles": "CCn1nc(C(=O)OCC(=O)c2ccc(F)cc2)c2ccccc2c1=O", "Potency": "inactive"},
      {"smiles": "COc1ccccc1N1C(=O)c2cccc3c(Cl)ccc(c23)C1=O", "Potency": "inconclusive: 2.51 µM [inhibitor, partial curve, poor fit]"},
      {"smiles": "CSc1ccc(/C=C(/NC(=O)c2ccco2)C(=O)N2CCOCC2)cc1", "Potency": "inconclusive: 5.62 µM [inhibitor, single point]"},
      {"smiles": "CCN(CC)CCNC(=O)c1cc2c(-c3ccc(Cl)cc3)nn(C)c2s1", "Potency": "active: 11.2 µM"},
      {"smiles": "COc1ccc(Cn2c(CCC(=O)Nc3cc(C)cc(C)c3)nc3cccnc32)cc1", "Potency": "inconclusive: 35.5 µM [inhibitor, single point]"},
      {"smiles": "CC(C(=O)OCC(=O)c1ccc([N+](=O)[O-])cc1)N1C(=O)C2C3CCC(C3)C2C1=O", "note": "(stereo unspecified)", "Potency": "inactive"},
      {"smiles": "C=CCn1c(SCc2cc(C(C)=O)ccc2OCC)nc2ccccc2c1=O", "Potency": "inconclusive: 7.08 µM [inhibitor, full curve]"},
      {"smiles": "COc1ccc(CNc2nc(-c3ccccc3)nc3ccccc23)cc1OC", "Potency": "inactive"},
      {"smiles": "Cc1cccc(C)c1NC(=O)CSc1nnc(-c2ccccc2)n1Cc1ccc2c(c1)OCO2", "Potency": "inconclusive: 6.31 µM [inhibitor, single point]"},
      {"smiles": "COCOCCn1cc(CN2CCS(=O)(=O)N(Cc3ccc(-c4ccc(Cl)cc4)cc3)C(C)C2=O)nn1", "note": "(stereo unspecified)", "Potency": "inconclusive: 3.98 µM [inhibitor, single point]"},
      {"smiles": "CC(C)OC(=O)c1c2c(n3ccccc13)C(=O)c1ccccc1C2=O", "Potency": "inconclusive: 6.31 µM [inhibitor, full curve, poor fit]"},
      {"smiles": "COc1ccc(C2N=C(N)N=C(N)N2c2ccc(C)cc2)cc1", "note": "(stereo unspecified)", "Potency": "inactive"},
      {"smiles": "Cc1ccccc1-n1c(SCC(=O)c2ccccc2)nnc1-c1ccc(F)cc1", "Potency": "inconclusive: 35.5 µM [inhibitor, single point]"},
      {"smiles": "CC(C)c1ccc(NC(=S)NC2CCN(Cc3ccccc3)CC2)cc1", "Potency": "inconclusive: 35.5 µM [inhibitor, single point]"},
      {"smiles": "O=C(NC(CSC(=O)c1ccccc1)C(=O)O)OCc1ccccc1", "note": "(stereo unspecified)", "Potency": "inconclusive: 5.62 µM [inhibitor, single point]"},
      {"smiles": "Cn1cc(Cl)c(C(=O)Nc2cccc(Cl)c2Cl)n1", "Potency": "inconclusive: 20 µM [inhibitor, single point]"},
      {"smiles": "COc1ccc(-c2nn(-c3ccccc3)cc2C(=O)Nc2ccc(C(=O)O)cc2)cc1", "Potency": "inactive"},
      {"smiles": "O=C(Oc1ccc(Cl)c2cccnc12)c1cccnc1", "Potency": "active: 10 µM"},
      {"smiles": "Cc1ccc(CN2CCCN(Cc3ccc(F)cc3Cl)S2(=O)=O)cc1", "Potency": "inconclusive: 35.5 µM [inhibitor, single point]"}
    ]}
  ]
}
